Data reported in the supplement of paper PMC7125110.
± gives the standard error. Variants at the background level are over-represented here.

B1: glmS ribozyme (parent)
chain: AUAAAAGCGCCAGAACUACAGAAAUGUAGUUGACGAGGAGGAGGUUUAUCGAAUUUUCGGCGGAUGCCUCCAAA

How the values were obtained:
Details in all cases: with glucosamine-6-phosphate
glucosamine-6-phosphate [1] = variants of: B1; test: self-cleavage kobs at 40 uM GlcN6P; higher = faster cleavage; RNA array
Method in brief: (§1)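 Tiles bearing barcoded ribozyme variants, transcribed in situ by E. coli RNA polymerase on sequenced MiSeq chips, were imaged over ~14 h at 37 °C using a hybridised Cy3 probe. Glucosamine-6-phosphate was supplied at 40 μM to 10 mM in HEPES/KCl/Mg(OAc)2 buffer. kobs came from one- or two-exponential decay fits to normalised per-tile medians, and weighted Michaelis–Menten fits then provided kcat and KM.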

glucosamine-6-phosphate [2] = variants of: B1; test: self-cleavage kobs at 10000 uM GlcN6P; higher = faster cleavage; RNA array
Method in brief: as §1

glucosamine-6-phosphate [3] = variants of: B1; test: self-cleavage kobs at 640 uM GlcN6P; higher = faster cleavage; RNA array
Method in brief: as §1

glucosamine-6-phosphate [4] = variants of: B1; test: self-cleavage kobs at 160 uM GlcN6P; higher = faster cleavage; RNA array
Method in brief: as §1

glucosamine-6-phosphate [5] = variants of: B1; test: self-cleavage kobs at 2500 uM GlcN6P; higher = faster cleavage; RNA array
Method in brief: as §1

Variant	self-cleavage kobs at 40 uM GlcN6P (glucosamine-6-phosphate [1]) [s⁻¹]	self-cleavage kobs at 10000 uM GlcN6P (glucosamine-6-phosphate [2]) [s⁻¹]	self-cleavage kobs at 640 uM GlcN6P (glucosamine-6-phosphate [3]) [s⁻¹]	self-cleavage kobs at 160 uM GlcN6P (glucosamine-6-phosphate [4]) [s⁻¹]	self-cleavage kobs at 2500 uM GlcN6P (glucosamine-6-phosphate [5]) [s⁻¹]
G41U U55A G63A	< 1e-05	< 1e-05			
A42U C50U C61A	< 1e-05	< 1e-05			
G41U G66A	7.21e-05 ± 1.7e-05	0.00299 ± 0.00054	0.000701 ± 0.00023	0.000253 ± 7.9e-05	0.00141 ± 0.00028
G41U U45A	8.05e-05 ± 2.1e-05	0.000309 ± 5.5e-05			
G43C G44U	< 1e-05	< 1e-05	< 1e-05	< 1e-05	< 1e-05
U45C U46A	< 1e-05				
A42C U56A	< 1e-05		< 1e-05		
G43U A52C	< 1e-05	< 1e-05	< 1e-05	< 1e-05	< 1e-05
G43U G60A G63C	< 1e-05				
G43A C68A	< 1e-05				
U45A U49A	< 1e-05			< 1e-05	< 1e-05
G41U U47A	7.19e-05 ± 1.3e-05	0.000706 ± 0.00012	0.000232 ± 5.2e-05	0.000127 ± 3.9e-05	0.000656 ± 0.00012
G44U U45C A64C	< 1e-05	< 1e-05			< 1e-05
U45A G63A	< 1e-05	< 1e-05	< 1e-05	< 1e-05	
A42C C68U C70U	< 1e-05				
G44U U65C	< 1e-05	< 1e-05	< 1e-05	< 1e-05	< 1e-05
U45C G51A	< 1e-05	< 1e-05	< 1e-05		< 1e-05
G43U G63A	< 1e-05		< 1e-05		< 1e-05
G41U C61G	< 1e-05	< 1e-05	< 1e-05	< 1e-05	< 1e-05
U45C C50G	< 1e-05				
U45C C50A	< 1e-05	< 1e-05			
G43U G66A	< 1e-05				

Variant	self-cleavage kobs at 40 uM GlcN6P (glucosamine-6-phosphate [1]) [s⁻¹]	self-cleavage kobs at 10000 uM GlcN6P (glucosamine-6-phosphate [2]) [s⁻¹]	self-cleavage kobs at 640 uM GlcN6P (glucosamine-6-phosphate [3]) [s⁻¹]	self-cleavage kobs at 160 uM GlcN6P (glucosamine-6-phosphate [4]) [s⁻¹]	self-cleavage kobs at 2500 uM GlcN6P (glucosamine-6-phosphate [5]) [s⁻¹]
A42C	< 1e-05			< 1e-05	
G44U G60U	< 1e-05	< 1e-05	< 1e-05	< 1e-05	< 1e-05
G43A G44A G51A C58A	< 1e-05	< 1e-05			
G43A G59U	< 1e-05	< 1e-05	< 1e-05	< 1e-05	
G41U C50U G59U G66U	< 1e-05				
G43C G63U	< 1e-05		< 1e-05	< 1e-05	< 1e-05
G43A C70G	< 1e-05	< 1e-05	< 1e-05	< 1e-05	< 1e-05
U45A A53C G60A	< 1e-05				
G44A C58U	< 1e-05	< 1e-05	< 1e-05	< 1e-05	< 1e-05
G43C C58U	< 1e-05	< 1e-05	< 1e-05	< 1e-05	< 1e-05
G41U A48U U55A	< 1e-05				
A42U G60A C68A	< 1e-05				< 1e-05
A42G G60A	< 1e-05		< 1e-05		
G44U U57G	< 1e-05	< 1e-05		< 1e-05	< 1e-05
U45C A52C	< 1e-05	< 1e-05			< 1e-05
G43U A48G	< 1e-05	< 1e-05	< 1e-05	< 1e-05	< 1e-05
G43U A48U	< 1e-05	< 1e-05	< 1e-05	< 1e-05	< 1e-05
G43U A48C	< 1e-05				
G41U A53G	0.000167 ± 2.7e-05		0.00133 ± 0.0002	0.000362 ± 7.8e-05	0.000959 ± 0.00015
G44A G51A	< 1e-05	< 1e-05	< 1e-05	< 1e-05	< 1e-05
G43A A53U	< 1e-05			< 1e-05	
G44A C68A	< 1e-05	< 1e-05	< 1e-05	< 1e-05	< 1e-05

Variant	self-cleavage kobs at 40 uM GlcN6P (glucosamine-6-phosphate [1]) [s⁻¹]	self-cleavage kobs at 10000 uM GlcN6P (glucosamine-6-phosphate [2]) [s⁻¹]	self-cleavage kobs at 640 uM GlcN6P (glucosamine-6-phosphate [3]) [s⁻¹]	self-cleavage kobs at 160 uM GlcN6P (glucosamine-6-phosphate [4]) [s⁻¹]	self-cleavage kobs at 2500 uM GlcN6P (glucosamine-6-phosphate [5]) [s⁻¹]
A42U U49G	< 1e-05		< 1e-05		< 1e-05
G44C C67U	5.1e-05 ± 1.3e-05	0.00168 ± 0.0003	0.000532 ± 0.00011	0.000153 ± 3.2e-05	0.00109 ± 0.00024
U45A A64G	0.000998 ± 0.00025	0.015 ± 0.004	0.0143 ± 0.0033	0.00526 ± 0.0021	
G44C A64U C71U	< 1e-05				
U45G A48U C71G	< 1e-05				
U45A A53G U55G	0.00113 ± 0.00021	0.0551 ± 0.018			
G44U U49A	< 1e-05	< 1e-05	< 1e-05	< 1e-05	< 1e-05
G44C G59U C70G	< 1e-05	< 1e-05	< 1e-05	< 1e-05	< 1e-05
G44C A64G	< 1e-05		< 1e-05	< 1e-05	< 1e-05
A42G C58G G66A	< 1e-05				
A42U G51U U55G	< 1e-05				
G44A	< 1e-05				
G41U A42G G44A A48G	< 1e-05		< 1e-05		
G43A G63U	< 1e-05		< 1e-05	< 1e-05	
U45A C71U	0.00126 ± 0.00019	0.0584 ± 0.019	0.012 ± 0.0029	0.00507 ± 0.00093	
U45A C71A	0.00019 ± 3.7e-05		0.000907 ± 0.00022	0.000518 ± 0.00016	
A42G G66C	< 1e-05				
A42U U49G U57A C61G	< 1e-05	< 1e-05	< 1e-05		< 1e-05
G43U C67G	7.18e-05 ± 1e-05	0.00166 ± 0.00022	0.000597 ± 8.6e-05	0.00022 ± 6e-05	0.00117 ± 0.0002
G43A U45G C58G	< 1e-05				
G44C U46G	< 1e-05				
G44C C50U C70G	< 1e-05		< 1e-05		

Variant	self-cleavage kobs at 40 uM GlcN6P (glucosamine-6-phosphate [1]) [s⁻¹]	self-cleavage kobs at 10000 uM GlcN6P (glucosamine-6-phosphate [2]) [s⁻¹]	self-cleavage kobs at 640 uM GlcN6P (glucosamine-6-phosphate [3]) [s⁻¹]	self-cleavage kobs at 160 uM GlcN6P (glucosamine-6-phosphate [4]) [s⁻¹]	self-cleavage kobs at 2500 uM GlcN6P (glucosamine-6-phosphate [5]) [s⁻¹]
G44A U49A C50G	< 1e-05	< 1e-05		< 1e-05	< 1e-05
G44C G59U	< 1e-05	< 1e-05	< 1e-05	< 1e-05	< 1e-05
G43U U45C	< 1e-05				
G44A C61A	< 1e-05	< 1e-05	< 1e-05	< 1e-05	< 1e-05
G44A G62U	< 1e-05	< 1e-05	< 1e-05	< 1e-05	< 1e-05
G44A G62C	< 1e-05	< 1e-05	< 1e-05	< 1e-05	< 1e-05
A42U A53G C70G	< 1e-05				
A42U G60C C67A	< 1e-05	< 1e-05			
A42G C68A	< 1e-05				
G44U A48G	< 1e-05	< 1e-05	< 1e-05	< 1e-05	< 1e-05
A42U A48G	< 1e-05		< 1e-05	< 1e-05	
G44U U45C	< 1e-05				
G44U G51A	< 1e-05		< 1e-05	< 1e-05	< 1e-05
G44U G51U	< 1e-05	< 1e-05	< 1e-05	< 1e-05	< 1e-05
A42U G44C C68G	< 1e-05	< 1e-05			
G43U G44A A48G C58A U69A C71G	< 1e-05	< 1e-05		< 1e-05	< 1e-05
G43C C71U	< 1e-05		< 1e-05	< 1e-05	< 1e-05
G44U U57C G63U G66A	< 1e-05				
G44C A52G U65C C67U	< 1e-05	< 1e-05	< 1e-05		< 1e-05
G43A U56A	< 1e-05			< 1e-05	
A42G A52U	< 1e-05				
